# Experimental data as given in publication PMC3199943, “Screening the MayBridge Rule of 3 Fragment Library for Compounds That Interact with the Trypanosoma brucei myo-Inositol-3-Phosphate Synthase and/or Show Trypanocidal Activity” (Molecular Biology International, 2011).
# Counter-ions that a name gives are not always drawn. Like-named read-outs stand apart in the source and are kept apart here.
# System: cultured bloodstream T. brucei (strain 427)
# Assay: microbe, parasite or virus in culture
# Conditions: Trypanosoma brucei
# [1] = read-out: T. brucei Alamar Blue
# [2] = read-out: T. brucei Alamar Blue, Supplementary Table 1, compound 0.5 mM, percentage of controls in the absence of compound, mean ± SD (n=3) or SE (n=2)
# [3] = read-out: T. brucei Alamar Blue (% survival)
Structure (SMILES),viability at 500 µM [1] [%],also measured
"CC(=O)c1sccc1N [compound 133, 1‐(3‐amino‐2‐thienyl)ethan‐1‐one]",56.3 ± 21.4,–
"Oc1ccc(SC(F)(F)F)cc1 [compound 584, 4‐[(trifluoromethyl)thio]phenol]",94.2 ± 17.2,–
"NCCOc1ccccc1 [compound 122, 2‐phenoxyethylamine]",64.6 ± 8.2,–
"COC(=O)c1sccc1N [compound 241, methyl 3‐aminothiophene‐2‐carboxylate]",81.2 ± 4.1,–
"CC(=O)c1ccc(S(C)(=O)=O)cc1 [compound 604, 1‐[4‐(methylsulfonyl)phenyl]ethan‐1‐one]",109 ± 11.7,–
"N#CC(c1ccccc1)N1CCOCC1 (stereo not drawn) [compound 638, 2‐morpholino‐2‐phenylacetonitrile]",94.8 ± 10,–
"CNc1ccc(F)cc1F [compound 144, N1‐methyl‐2,4‐difluoroaniline]",38.1 ± 11.4,–
"CNCc1cccc(N2CCCCC2)c1 [compound 656, N‐methyl‐N‐(3‐piperidin‐1‐ylbenzyl)amine]",28.2 ± 9.7,–
"O=C(O)c1ccc(-c2ccccn2)s1 [compound 661, 5‐(2‐pyridyl)thiophene‐2‐carboxylic acid]",89.3 ± 17.6,–
"N#Cc1ccc(-c2ccco2)nc1 [compound 344, 6‐(2‐furyl)nicotinonitrile]",40.4 ± 13.9,–
"OCc1cc(-c2cccs2)[nH]n1 [compound 459, (5‐thien‐2‐yl‐1H‐pyrazol‐3‐yl)methanol]",41.2 ± 2.9,–
"COC(=O)c1ccccc1-n1cccc1 [compound 628, methyl 2‐(1H‐pyrrol‐1‐yl)benzoate]",35.1 ± 9.3,–
"COC(=O)c1cccc(C)c1 [compound 185, methyl 3‐methylbenzoate]",110 ± 12.7,–
"NC(=S)C1=Cc2ccccc2OC1 [compound 558, 2H‐chromene‐3‐carbothioamide]",41.2 ± 13.3,–
"Cc1cc(N)no1 [compound 9, 5‐methylisoxazol‐3‐amine]",–,viability at 500 µM [2]: 97 ± 14.3%
"OCc1cccc(N2CCOCC2)c1 [compound 579, (3‐morpholinophenyl)methanol]",69.7 ± 12.3,–
"NCCc1cccc2c1OCC2 [compound 293, 2,3‐Dihydrobenzo[b]furan‐7‐ethylamine]",31.2 ± 11.9,–
"Cc1cc(N)on1 [compound 10, 3‐methylisoxazol‐5‐amine]",67.7 ± 8.7,–
"O=C1CSC(c2cccs2)C1 (stereo not drawn) [compound 482, 5‐(2‐thienyl)tetrahydrothiophen‐3‐one]",40.9 ± 5.9,–
"Cn1ccc2c(C(=O)O)cccc21 [compound 399, 1‐methyl‐1H‐indole‐4‐carboxylic acid]",77.4 ± 9.9,–
"CC(=O)c1ccc(F)c(F)c1 [compound 234, 1‐(3,4‐difluorophenyl)ethan‐1‐one]",98.7 ± 6.5,–
"O=C(O)c1csc2ccccc12 [compound 432, 1‐benzothiophene‐3‐carboxylic acid]",83.1 ± 17.9,–
"CC(=O)Nc1ccc2c(c1)CCC2 [compound 400, N1‐(2,3‐dihydro‐1H‐inden‐5‐yl)acetamide]",81.6 ± 17.2,–
"O=C1CCC(C(F)(F)F)CC1 [compound 317, 4‐(trifluoromethyl)cyclohexan‐1‐one]",106 ± 12.4,–
"N#Cc1c(N)cccc1F [compound 115, 2‐amino‐6‐fluorobenzonitrile]",90 ± 9.9,–
"CNCc1cccc(-c2ccncc2)c1 [compound 605, N‐methyl‐N‐(3‐pyridin‐4‐ylbenzyl)amine]",37.4 ± 13.7,–

Structure (SMILES),viability at 500 µM [1] [%],also measured
"CNCc1ccc(-c2nccs2)cc1 [compound 654, N‐methyl‐4‐(1,3‐thiazol‐2‐yl)benzylamine]",28.2 ± 6.4,–
"Nc1nsc(-c2ccccc2)n1 [compound 424, 5‐phenyl‐1,2,4‐thiadiazol‐3‐amine]",107 ± 4.7,–
"CC1CNC(C)CN1 (stereo not drawn) [compound 36, 2,5‐dimethylpiperazine]",81.1 ± 18.6,–
"COc1ccccc1C1CCNCC1 [compound 560, 4‐(2‐methoxyphenyl)piperidine]",25 ± 2.7,–
"OCc1csc(-c2ccccc2)n1 [compound 557, (2‐phenyl‐1,3‐thiazol‐4‐yl)methanol]",64.1 ± 11.9,–
"Cc1cccc(O)n1 [compound 19, 6‐methylpyridin‐2‐ol]",94.5 ± 12.2,–
"OC1CCSCC1 [compound 47, tetrahydro‐2H‐thiopyran‐4‐ol]",113 ± 7.5,–
"CC(C)(C)c1ccc(N)cc1 [compound 178, 4‐(tert‐butyl)aniline]",101 ± 6,–
"Cc1ccccc1NC(N)=S [compound 326, N‐(2‐methylphenyl)thiourea]",–,viability at 500 µM [2]: 90.2 ± 6.3%
"O=C(O)C1CCOCC1 [compound 92, tetrahydro‐2H‐pyran‐4‐carboxylic acid]",58.7 ± 14.3,–
"COC(=O)c1ccc(N)c(C)c1 [compound 304, methyl 4‐amino‐3‐methylbenzoate]",87 ± 11.8,–
"Cc1cc(N)n(C)n1 [compound 26, 1,3‐dimethyl‐1H‐pyrazol‐5‐amine]",97.8 ± 4.7,–
"N#CCc1ccccn1 [compound 46, 2‐(2‐pyridyl)acetonitrile]",44.1 ± 16.1,–
"OCc1ccccc1-n1cccc1 [compound 371, [2‐(1H‐pyrrol‐1‐yl)phenyl]methanol]",38.3 ± 1.4,–
"CCOC(=O)Cc1csc(C)n1 [compound 494, ethyl 2‐(2‐methyl‐1,3‐thiazol‐4‐yl)acetate]",107 ± 6.4,–
"c1ccc2c(c1)CCO2 [compound 49, 2,3‐dihydrobenzo[b]furan]",104 ± 18.1,–
"Cc1cc(C(=O)O)c(C(F)(F)F)o1 [compound 583, 5‐methyl‐2‐(trifluoromethyl)‐3‐furoic acid]",98.2 ± 11.7,–
"Nc1cccc(COc2ccccc2)c1 [compound 616, 3‐(phenoxymethyl)aniline]",35.4 ± 10.2,–
"COc1cccc(N)c1 [compound 61, 3‐methoxyaniline]",67.4 ± 6.7,–
"OCc1cccc2c1OCO2 [compound 203, 1,3‐benzodioxol‐4‐ylmethanol]",74.8 ± 13.4,–
"N#Cc1ccsc1N [compound 68, 2‐aminothiophene‐3‐carbonitrile]",30.3 ± 11,–
"Cn1c(=S)oc2ccccc21 [compound 310, 3‐methyl‐1,3‐benzoxazole‐2(3H)‐thione]",91.4 ± 3.7,–
"OCc1cccc(Oc2ccccn2)c1 [compound 630, [3‐(pyrid‐2‐yloxy)phenyl]methanol]",81.4 ± 5.7,–
"Nc1ccc2c(c1)C(=O)OC2 [compound 175, 6‐amino‐1,3‐dihydroisobenzofuran‐1‐one]",91.7 ± 12.2,–
"Cc1[nH]c2ccc(C(=O)O)cc2c1C [compound 537, 2,3‐dimethyl‐1H‐indole‐5‐carboxylic acid]",85.3 ± 0.3,–
"COc1cccc(OC)c1SC [compound 481, 1,3‐dimethoxy‐2‐(methylthio)benzene]",82.6 ± 6.8,–

Structure (SMILES),viability at 500 µM [1] [%],also measured
"NCc1ccc(-n2cccn2)cc1 [compound 378, 4‐(1H‐pyrazol‐1‐yl)benzylamine]",46.3 ± 17.2,–
"O=C(O)C1CCCCO1 (stereo not drawn) [compound 93, tetrahydropyran‐2‐carboxylic acid]",67.2 ± 12,–
"O=C(O)c1cc2sccc2[nH]1 [compound 328, 4H-thieno[3,2-b]pyrrole-5-carboxylic acid]",–,"viability at 500 µM (read-out: T. brucei Alamar Blue (% survival), compound 0.5 mM, percentage of controls): 51.6 ± 13.3%; viability at 500 µM [2]: 51.6 ± 13.3%"
"Cn1ccc(C(F)(F)F)n1 [compound 181, 1‐methyl‐3‐(trifluoromethyl)‐1H‐pyrazole]",105 ± 8,–
"OCc1cn2ccccc2n1 [compound 172, imidazo[1,2‐a]pyridin‐2‐ylmethanol]",47.6 ± 14.2,–
"COc1ccc(Cl)cc1C(=O)O [compound 508, 5‐chloro‐2‐methoxybenzoic acid]",92.5 ± 12,–
"Cc1csc(C(=O)O)c1 [compound 139, 4‐methylthiophene‐2‐carboxylic acid]",121.9 ± 1.1,–
"Nc1ccc(N2CCCCC2)cc1 [compound 413, 4‐piperidinoaniline]",26 ± 4.8,–
"O=C1Cc2ccccc2N1 [compound 99, indolin-2-one]",37.3 ± 9.2,"viability at 500 µM [3]: 37.3 ± 9.2%; IC50 (read-out: T. brucei ED50, ED50 ± SD (n = 4)): 216 ± 18 µM"
"Cc1cccc(C)c1C#N [compound 94, 2,6‐dimethylbenzonitrile]",86 ± 16.6,–
"CCc1cccc(C)n1 [compound 52, 2‐ethyl‐6‐methylpyridine]",80.8 ± 14,–
"FC(F)(F)c1cc[nH]n1 [compound 114, 3‐(trifluoromethyl)‐1H‐pyrazole]",86.2 ± 19.7,–
"Cc1ccc2sc(CO)cc2c1 [compound 442, 5‐Methylbenzo[b]thiophene‐2‐methanol]",30.5 ± 6,–
"O=C1CCC2CC1CCC2=O [compound 206, bicyclo[3.3.1]nonane‐2,6‐dione]",93.2 ± 7.8,–
"OCc1ccccc1-c1cccs1 [compound 543, (2‐thien‐2‐ylphenyl)methanol]",30.9 ± 1.2,–
"OCc1ccc(-c2ccco2)s1 [compound 458, [5‐(2‐furyl)thien‐2‐yl]methanol]",71.4 ± 18,–
"OCc1ccc2c(c1)OCO2 [compound 200, 1,3‐benzodioxol‐5‐ylmethanol]",84.2 ± 5.9,–
"CNCc1cccnc1 [compound 57, N‐methyl‐N‐(3‐pyridylmethyl)amine]",111 ± 6.8,–
"Cc1ccc(CO)o1 [compound 30, (5-methyl-2-furyl)methanol]",45 ± 14.1,viability at 500 µM [3]: 45 ± 14.1%
"OCc1ccc2occc2c1 [compound 168, 1‐benzofuran‐5‐ylmethanol]",34.7 ± 8,–
"ON=C1CN2CCC1CC2 [compound 416, quinuclidin‐3‐one oxime hydrochloride]",109 ± 15,–
"NC(=O)c1ccccc1N1CCCCC1 [compound 651, 2‐piperidinobenzamide]",31.6 ± 9.7,–
"Oc1cccc(N2CCOCC2)c1 [compound 447, 3‐morpholinophenol]",70.4 ± 22.1,–
"Oc1ccc2c(c1)OCO2 [compound 124, 1,3-benzodioxol-5-ol]",28.2 ± 7.1,viability at 500 µM [3]: 28.2 ± 7.1%
